Assay results published in the supplement of paper PMC4723716.
± gives the uncertainty stated by the source. Whole data set: some 9,900 compounds, median “viability index relative to DMSO control” near 1, cut for the lowest 2% near 0.85. The list shows a part of the results.

Test system: Plasmodium falciparum NF54 stage V gametocytes
Test: viability index relative to DMSO control (fraction); higher = less gametocyte killing
Settings: 2.5 µM, incubation time: 72 h
Procedure: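 Broad DOS informer set and blood-stage-active DOS compounds screened in duplicate at 2.5 µM against P. falciparum NF54 stage V gametocytes with the serum-free one-step SaLSSA (1536-well): 72 h at 37 °C under low oxygen, then saponin lysis and MitoTracker Red CMXRos staining, with high-content imaging. Viability index = viable-object count divided by the plate mean of DMSO wells (0 = killed, about 1 = inactive).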

[1] = library set: Broad Institute DOS

O=C(Cc1ccccn1)N1[C@H](CO)[C@H]2c3ccccc3NC[C@H]21
viability index [1]: 1.03 ± 0.022

O=C([C@H]1[C@H](CO)[C@H]2Cn3c(ccc(C4=CCCCC4)c3=O)[C@@H]1N2Cc1nccs1)N1CCCCC1
viability index [1]: 1.02 ± 0.018

Cc1ccc(S(=O)(=O)N(C)C[C@@H]2Oc3cc(C#CC4CCCC4)ccc3S(=O)(=O)N([C@@H](C)CO)C[C@H]2C)cc1
viability index [1]: 0.648 ± 0.17

Cc1cccc(-c2ccc([C@H]3[C@H]4CN(S(=O)(=O)c5ccccc5F)CCCCN4[C@H]3CO)cc2)c1
viability index [1]: 0.973 ± 0.094

COC(=O)C[C@@H]1CC[C@H]2[C@H](COc3ccc(NC(=O)Nc4cccc(C#N)c4)cc3C(=O)N2C)O1
viability index [1]: 1.11 ± 0.14

COc1ccc(NC(=O)Nc2ccc3c(c2)[C@@H]2C[C@@H](CC(=O)NCC(F)(F)F)O[C@@H](CO)[C@@H]2O3)cc1
viability index [1]: 1.06 ± 0.089

CO[C@@H](CN(C)Cc1cc(F)ccc1F)[C@H](C)CN(C(=O)Nc1ccc(C(F)(F)F)cc1)[C@@H](C)CO
viability index [1]: 1.05 ± 0.018

C[C@H]1CN([C@@H](C)CO)C(=O)Cc2cc(NS(=O)(=O)c3ccc(Cl)cc3)ccc2O[C@H]1CN(C)C(=O)Nc1ccc(C(F)(F)F)cc1
viability index [1]: 1.03 ± 0.023

C[C@H](O)C#Cc1ccc([C@@H]2[C@H](CO)N3CCCCN(CC4CC4)C[C@@H]23)cc1
viability index [1]: 1.01 ± 0.041

COc1ccc2c3c([C@H](CO)N(C)C[C@]33CN(C3)C(=O)Nc3c(C)noc3C)n(C)c2c1
viability index [1]: 1.05 ± 0.045

CN(C)CC(=O)N1[C@H](CO)[C@@H](c2ccccc2-c2ccccc2F)[C@@H]1C#N
viability index [1]: 1.1 ± 0.037

C/C=C/c1ccc2c(c1)O[C@@H](CN(C)C(=O)Nc1ccc(OC)cc1)[C@@H](C)CN([C@H](C)CO)S2(=O)=O
viability index [1]: 1.09 ± 0.065

CC(C)NC(=O)N1[C@H](C#N)[C@@H](c2ccccc2-c2ccc(F)cc2)[C@@H]1CO
viability index [1]: 1.01 ± 0.1

O=C(C[C@H]1C[C@@H]2c3cc(NC(=O)Nc4ccccc4)ccc3O[C@@H]2[C@H](CO)O1)NCc1ccccc1
viability index [1]: 1.06 ± 0.03

COCCNC(=O)C[C@H]1CC[C@@H]2[C@@H](COc3ccc(NS(=O)(=O)c4ccc(Cl)cc4)cc3C(=O)N2C)O1
viability index [1]: 1.07 ± 0.082

CO[C@@H]1CN(C)C(=O)c2ccc(NC(=O)c3ccc4c(c3)OCO4)cc2OC[C@@H](C)N(Cc2ccc3c(c2)OCO3)C[C@H]1C
viability index [1]: 0.926 ± 0.011

COc1ccc2c3c([nH]c2c1)[C@@H](CO)N(C[C@]31CCN(CC1)C(=O)c1cnccn1)C(=O)NC(C)C
viability index [1]: 1.05 ± 0.023

OC[C@@H]1[C@H](c2ccc(-c3cccc(F)c3)cc2)[C@@H]2CN(Cc3cncnc3)CCCCN12
viability index [1]: 1.06 ± 0.047

CCC(=O)N1CC(=O)N2[C@H](CO)[C@@H](c3ccc(C#CCC(C)C)cc3)[C@@H]2C1
viability index [1]: 0.992 ± 0.11

CCCC(=O)N1C[C@@]2(C1)CN([C@H](CO)c1[nH]c3cc(OC)ccc3c21)S(=O)(=O)c1ccc(C)cc1
viability index [1]: 0.946 ± 0.074

O=C([C@@H]1[C@@H](CO)[C@@H]2Cn3c(cccc3=O)[C@H]1N2S(=O)(=O)c1ccccc1F)N1CCCCC1
viability index [1]: 1.03 ± 0.042

CC(C)[C@@H]1C(=O)N[C@H](c2cccc(Cl)c2)C/C=C/C[C@@H](C)Oc2ccccc2C(=O)N1C.CC(C)[C@@H]1C(=O)N[C@H](c2cccc(Cl)c2)C/C=C\C[C@@H](C)Oc2ccccc2C(=O)N1C
viability index [1]: 1.06 ± 0.06

COc1ccc(S(=O)(=O)Nc2ccc3c(c2)C(=O)N([C@@H](C)CO)C[C@H](C)[C@@H](CN(C)Cc2ccc(C(F)(F)F)cc2)OCCCC[C@@H](C)O3)cc1
viability index [1]: 0.829 ± 0.0097

COCC#Cc1ccc([C@@H]2[C@@H](CO)N3C(=O)CN(C(=O)Nc4ccccc4F)C[C@H]23)cc1
viability index [1]: 1.062 ± 0.0012

CO[C@@H](CN(C)C(=O)c1cnccn1)[C@H](C)CN([C@@H](C)CO)S(=O)(=O)c1ccccc1
viability index [1]: 0.94 ± 0.058

CCCC#Cc1ccc2c(c1)[C@@H]1[C@@H](CCN1S(=O)(=O)c1cccc(F)c1)[C@@H](CO)N2C
viability index [1]: 1.12 ± 0.051

CC(C)COC(=O)N(C)C[C@@H]1OCc2ccccc2-c2ccccc2C(=O)N([C@@H](C)CO)C[C@@H]1C
viability index [1]: 1.09 ± 0.11

O=C(C[C@@H]1CC[C@H](NC(=O)C2CC2)[C@@H](CO)O1)Nc1ccccc1
viability index [1]: 0.983 ± 0.098

CNC[C@H]1Oc2ncc(-c3cncnc3)cc2C(=O)N([C@@H](C)CO)C[C@H]1C
viability index [1]: 1.01 ± 0.07

CN(C)C(=O)c1cccc(-c2ccc([C@@H]3[C@H](CO)N4C(=O)CN(C(=O)C5CCC5)C[C@@H]34)cc2)c1
viability index [1]: 1.03 ± 0.12

N#C[C@@H]1[C@H](c2ccccc2-c2cccc(F)c2)[C@@H](CO)N1S(=O)(=O)c1cccc(F)c1
viability index [1]: 1.15 ± 0.081

CN1C(=O)c2cc(NS(=O)(=O)CC(F)(F)F)ccc2OC[C@H]2O[C@@H](CC(=O)NCc3ccc(Cl)c(Cl)c3)CC[C@@H]21
viability index [1]: 1.06 ± 0.11

CCCC#Cc1ccc([C@H]2[C@H](CO)N3C(=O)CN(C(=O)Nc4cccc(F)c4)C[C@@H]23)cc1
viability index [1]: 1.03 ± 0.042

O=C(C[C@@H]1CC[C@H]2[C@@H](COC[C@@H](O)CN2CC2CCOCC2)O1)NCc1ccc(Cl)cc1
viability index [1]: 1.03 ± 0.047

CO[C@@H]1CN(C)C(=O)c2ccc(NC(=O)NC(C)C)cc2OC[C@@H](C)N(Cc2ccc(-c3ccccn3)cc2)C[C@@H]1C
viability index [1]: 1.08 ± 0.019

CNC[C@H]1Oc2ncc(-c3cncnc3)cc2C(=O)N([C@H](C)CO)C[C@@H]1C
viability index [1]: 0.979 ± 0.074

COc1ccc2c3c([nH]c2c1)[C@@H](CO)N(Cc1cc(F)ccc1F)C[C@]31CCN(CC1)C(=O)CN(C)C
viability index [1]: 0.945 ± 0.049

CO[C@@H](CN(C)Cc1ccc2c(c1)OCO2)[C@@H](C)CN(C(=O)c1ccccc1)[C@H](C)CO
viability index [1]: 1.01 ± 0.042

COc1ccc(S(=O)(=O)Nc2ccc3c(c2)CC(=O)N([C@H](C)CO)C[C@H](C)[C@H](CN(C)Cc2ccc(C(=O)Nc4ccccc4N)cc2)O3)cc1
viability index [1]: 0.766 ± 0.044

CCS(=O)(=O)N1[C@H](CO)[C@@H](c2ccc(-c3cccc(F)c3)cc2)[C@@H]1C#N
viability index [1]: 1.13 ± 0.033

CN1C(=O)c2cc(NC(=O)c3cccc(Cl)c3)ccc2OC[C@@H]2O[C@H](CC(=O)NC3CCCCC3)CC[C@H]21
viability index [1]: 1.08 ± 0.031

CCCC(=O)Nc1ccc2c(c1)OC[C@H](C)N(C(=O)c1cccnc1)C[C@@H](C)[C@H](OC)CN(C)C2=O
viability index [1]: 1.05 ± 0.014

COCC#Cc1ccc([C@@H]2[C@H]3CN(C(=O)NC4CCCC4)CCCCN3[C@H]2CO)cc1
viability index [1]: 1.02 ± 0.023

COc1ccc(-c2ccc3n(c2=O)C[C@@H]2[C@@H](CO)[C@H](C(=O)N4CCOCC4)N[C@H]32)cc1
viability index [1]: 1.07 ± 0.054

CCCC(=O)N1C[C@]2(CN(C2)C(=O)C2CC2)c2c([C@@H]1CO)n(C)c1cc(OC)ccc21
viability index [1]: 1.06 ± 0.042

C[C@@H]1CCCCO[C@H](CN(C)C(=O)CCCN(C)C)[C@@H](C)CN([C@@H](C)CO)C(=O)c2cc(NC(=O)Nc3ccc4c(c3)OCO4)ccc2O1
viability index [1]: 1.08 ± 0.056

O=C(C[C@H]1CC[C@H](NS(=O)(=O)c2ccccc2F)[C@@H](CO)O1)NCCCN1CCOCC1
viability index [1]: 0.87 ± 0.14

OC[C@H]1[C@@H](c2ccc(-c3cccc(F)c3)cc2)[C@H]2CN(Cc3cncnc3)CCCCN21
viability index [1]: 1.05 ± 0.071

CN1c2ccc(-c3ccc(C#N)cc3)cc2[C@@H]2[C@@H](CCN2S(=O)(=O)c2ccc(F)cc2)[C@@H]1CO
viability index [1]: 1.086 ± 0.0029

C[C@H](CO)N1C[C@H](C)[C@H](CN(C)C(=O)Nc2ccnc(N3CCOCC3)c2)OCc2ccccc2-c2ccccc2C1=O
viability index [1]: 0.96 ± 0.11

CO[C@@H]1CN(C)C(=O)c2ccc(NC(=O)NC(C)C)cc2OC[C@H](C)N(Cc2ccc(-c3ccccn3)cc2)C[C@@H]1C
viability index [1]: 1.11 ± 0.095

O=C(C[C@@H]1CC[C@@H]2[C@H](COC[C@H](O)CN2C(=O)Nc2ccc(F)cc2)O1)NC1CCC1
viability index [1]: 1.1 ± 0.012

C[C@@H]1CCCCO[C@H](CN(C)Cc2ccc3c(c2)OCO3)[C@H](C)CN([C@@H](C)CO)C(=O)c2cc(NS(=O)(=O)c3cn(C)cn3)ccc2O1
viability index [1]: 1.052 ± 0.0054

O=C(O)C[C@H]1CC[C@H]2[C@@H](COC[C@H](O)CN2S(=O)(=O)c2ccc(Oc3ccccc3)cc2)O1
viability index [1]: 1.08 ± 0.056

COc1ccc2c3c([nH]c2c1)[C@H](CO)N(C[C@]31CN(C1)S(=O)(=O)c1ccc(C)cc1)C(=O)Nc1ccc(F)cc1
viability index [1]: 1.05 ± 0.054

C[C@H]1CN([C@@H](C)CO)C(=O)c2cc(C#Cc3cccc(F)c3)cnc2O[C@@H]1CN(C)C(=O)C1CCCCC1
viability index (library set: Broad Institute Blood Stage): 0.769 ± 0.073

NCC[C@H]1CC[C@@H](NC(=O)Cc2ccncc2)[C@H](CO)O1
viability index [1]: 1.091 ± 0.0072

O=S(=O)(c1ccccc1)N1[C@H](CO)[C@@H]2c3ccccc3NC[C@@H]21
viability index [1]: 1.01 ± 0.011

C[C@@H]1CN([C@@H](C)CO)C(=O)c2cc(Br)cnc2O[C@H]1CN(C)C(=O)Nc1ccc2c(c1)OCO2
viability index [1]: 0.991 ± 0.028

CN1[C@@H]2c3ccc(-c4ccncc4)c(=O)n3C[C@H]1[C@H](CO)[C@H]2C(=O)N1CCC(Cc2ccccc2)CC1
viability index [1]: 1 ± 0.031

COC(=O)[C@@H]1[C@@H](CO)[C@@H]2Cn3c(ccc(C4=CCCC4)c3=O)[C@@H]2N1C(=O)Cc1cccnc1
viability index [1]: 1.06 ± 0.053

CN(C)C(=O)c1cccc(-c2ccc([C@@H]3[C@@H]4CN(Cc5cocn5)C[C@H]3N4)cc2)c1
viability index [1]: 0.989 ± 0.029

CO[C@H]1CC[C@@H]2CCOc3c(C#N)cccc3C(=O)N(C)C[C@@H](c3ccccc3)CC(=O)N(C)C[C@@H]1O2
viability index [1]: 1.036 ± 0.008

CN1C(=O)c2cc(NC(=O)c3cnccn3)ccc2OC[C@H]2O[C@H](CC(=O)N[C@@H]3CCN(Cc4ccccc4)C3)CC[C@@H]21
viability index [1]: 1.02 ± 0.052

COc1ccc2c3c([C@@H](CO)N(C[C@]33CCN(CC3)C(=O)Nc3cccc(F)c3)S(C)(=O)=O)n(C)c2c1
viability index [1]: 1.05 ± 0.031

COCCNC[C@@H]1[C@H](c2ccccc2)[C@H](CO)N1c1nc(C)c(C)s1
viability index [1]: 1.02 ± 0.067

COc1ccc(-c2ccc([C@H]3[C@H](CO)N4C(=O)CN(C(=O)Cc5ccccn5)C[C@@H]34)cc2)cc1
viability index [1]: 1.02 ± 0.012

O=C(Nc1cc(F)ccc1F)N[C@H]1CC[C@H](CCn2cc(C3CCCCC3)nn2)O[C@@H]1CO
viability index [1]: 1.07 ± 0.0077
